In PMC12820563:
Some of the results follow. The list includes weakly bound sequences.

What follows are sequences tested against T1, MBP-FoxP3dN (UniProt Q99JB6) (assay: PD-seq (MBP pull-down with sequencing)). Settings: 20 mM Tris-HCl pH 7.5, 100 mM NaCl, 1.5 mM MgCl2, 0.4 uM protein, 0.1 uM dsDNA library, 30 min, room temperature, amylose pull-down; high values mean tight binding; double strand, one strand shown.
T1 sequence: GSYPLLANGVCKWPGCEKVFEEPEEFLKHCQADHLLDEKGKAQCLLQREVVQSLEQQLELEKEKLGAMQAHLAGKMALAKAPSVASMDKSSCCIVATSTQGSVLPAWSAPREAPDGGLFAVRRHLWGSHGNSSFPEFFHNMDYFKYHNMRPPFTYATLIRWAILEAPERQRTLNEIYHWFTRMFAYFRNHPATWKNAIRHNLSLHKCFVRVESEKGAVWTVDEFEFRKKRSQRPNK
With “GATGATTGTTCTCCCAGCTGATGAATTACAACCTTCGAGTAAACAAATTTTCCTAATCTTTCTGTTCAAGCGCCATCTAC” the binding signal (RPM ratio (pull-down/input)) was 0.474. In the case of “GATGATTGTTCTCCCAGCTGATGAATTCTTTTAGTCGAGTAAACAAATTTTCCTAATCTTTCTGTTCAAGCGCCATCTAC”, the binding signal (RPM ratio (pull-down/input)) is reported as 0.266. “GATGATTGTTCTCCCAGCTGATGAATTGGTAGGGTCGAGTAAACAAATTTTCCTAATCTTTCTGTTCAAGCGCCATCTAC” showed a binding signal (RPM ratio (pull-down/input)) of 0.794. Sequence “GATGATTGTTCTCCCAGCTGATGAATTGGCGCAGTCGAGTAAACAAATTTTCCTAATCTTTCTGTTCAAGCGCCATCTAC” has a binding signal (RPM ratio (pull-down/input)) of 0.577. With “GATGATTGTTCTCCCAGCTGATGAATTTCGAGTCTCGAGTAAACAAATTTTCCTAATCTTTCTGTTCAAGCGCCATCTAC” the binding signal (RPM ratio (pull-down/input)) was 1.07. Sequence “GATGATTGTTCTCCCAGCTGATGAATTCTGTCTGTCGAGTAAACAAATTTTCCTAATCTTTCTGTTCAAGCGCCATCTAC” has a binding signal (RPM ratio (pull-down/input)) of 1.04. “GATGATTGTTCTCCCAGCTGATGAATTAATCAAGTCGAGTAAACAAATTTTCCTAATCTTTCTGTTCAAGCGCCATCTAC” showed a binding signal (RPM ratio (pull-down/input)) of 0.258. Work on “GATGATTGTTCTCCCAGCTGATGAATTCCGTAGGTCGAGTAAACAAATTTTCCTAATCTTTCTGTTCAAGCGCCATCTAC” yielded a binding signal (RPM ratio (pull-down/input)) of 0.424. Sequence “GATGATTGTTCTCCCAGCTGATGAATTCGACATATCGAGTAAACAAATTTTCCTAATCTTTCTGTTCAAGCGCCATCTAC” has a binding signal (RPM ratio (pull-down/input)) of 0.66. “GATGATTGTTCTCCCAGCTGATGAATTATCGAGCTCGAGTAAACAAATTTTCCTAATCTTTCTGTTCAAGCGCCATCTAC” gave a binding signal (RPM ratio (pull-down/input)) of 0.268. “GATGATTGTTCTCCCAGCTGATGAATTATGGATTTCGAGTAAACAAATTTTCCTAATCTTTCTGTTCAAGCGCCATCTAC” gave a binding signal (RPM ratio (pull-down/input)) of 0.452. “GATGATTGTTCTCCCAGCTGATGAATTTAACTGGTCGAGTAAACAAATTTTCCTAATCTTTCTGTTCAAGCGCCATCTAC” showed a binding signal (RPM ratio (pull-down/input)) of 0.308. “GATGATTGTTCTCCCAGCTGATGAATTAAAAGTATCGAGTAAACAAATTTTCCTAATCTTTCTGTTCAAGCGCCATCTAC” gave a binding signal (RPM ratio (pull-down/input)) of 0.407. With “GATGATTGTTCTCCCAGCTGATGAATTTTATTGCTCGAGTAAACAAATTTTCCTAATCTTTCTGTTCAAGCGCCATCTAC” the binding signal (RPM ratio (pull-down/input)) was 2.06. Work on “GATGATTGTTCTCCCAGCTGATGAATTCAAGTCGTCGAGTAAACAAATTTTCCTAATCTTTCTGTTCAAGCGCCATCTAC” yielded a binding signal (RPM ratio (pull-down/input)) of 0.342. In the case of “GATGATTGTTCTCCCAGCTGATGAATTATGCAGGTCGAGTAAACAAATTTTCCTAATCTTTCTGTTCAAGCGCCATCTAC”, the binding signal (RPM ratio (pull-down/input)) is reported as 1.53. In the case of “GATGATTGTTCTCCCAGCTGATGAATTCCCTACCTCGAGTAAACAAATTTTCCTAATCTTTCTGTTCAAGCGCCATCTAC”, the binding signal (RPM ratio (pull-down/input)) is reported as 0.251. For “GATGATTGTTCTCCCAGCTGATGAATTTTTCCTATCGAGTAAACAAATTTTCCTAATCTTTCTGTTCAAGCGCCATCTAC”, the binding signal (RPM ratio (pull-down/input)) was 0.232. “GATGATTGTTCTCCCAGCTGATGAATTTGTGTGCTCGAGTAAACAAATTTTCCTAATCTTTCTGTTCAAGCGCCATCTAC” gave a binding signal (RPM ratio (pull-down/input)) of 5.67. For “GATGATTGTTCTCCCAGCTGATGAATTGGGTGTATCGAGTAAACAAATTTTCCTAATCTTTCTGTTCAAGCGCCATCTAC”, the binding signal (RPM ratio (pull-down/input)) was 1.62. Work on “GATGATTGTTCTCCCAGCTGATGAATTGTGGGGATCGAGTAAACAAATTTTCCTAATCTTTCTGTTCAAGCGCCATCTAC” yielded a binding signal (RPM ratio (pull-down/input)) of 0.583. For “GATGATTGTTCTCCCAGCTGATGAATTCGAATCGTCGAGTAAACAAATTTTCCTAATCTTTCTGTTCAAGCGCCATCTAC”, the binding signal (RPM ratio (pull-down/input)) was 0.414. With “GATGATTGTTCTCCCAGCTGATGAATTATTAGCCTCGAGTAAACAAATTTTCCTAATCTTTCTGTTCAAGCGCCATCTAC” the binding signal (RPM ratio (pull-down/input)) was 0.614. For “GATGATTGTTCTCCCAGCTGATGAATTCCGATTCTCGAGTAAACAAATTTTCCTAATCTTTCTGTTCAAGCGCCATCTAC”, the binding signal (RPM ratio (pull-down/input)) was 0.764. Sequence “GATGATTGTTCTCCCAGCTGATGAATTCACTCCATCGAGTAAACAAATTTTCCTAATCTTTCTGTTCAAGCGCCATCTAC” has a binding signal (RPM ratio (pull-down/input)) of 0.335. “GATGATTGTTCTCCCAGCTGATGAATTGACTCGTTCGAGTAAACAAATTTTCCTAATCTTTCTGTTCAAGCGCCATCTAC” showed a binding signal (RPM ratio (pull-down/input)) of 0.372. “GATGATTGTTCTCCCAGCTGATGAATTTTACCAATCGAGTAAACAAATTTTCCTAATCTTTCTGTTCAAGCGCCATCTAC” showed a binding signal (RPM ratio (pull-down/input)) of 0.295. “GATGATTGTTCTCCCAGCTGATGAATTTCACTTGTCGAGTAAACAAATTTTCCTAATCTTTCTGTTCAAGCGCCATCTAC” showed a binding signal (RPM ratio (pull-down/input)) of 0.637. “GATGATTGTTCTCCCAGCTGATGAATTTGACACGTCGAGTAAACAAATTTTCCTAATCTTTCTGTTCAAGCGCCATCTAC” showed a binding signal (RPM ratio (pull-down/input)) of 1.34. In the case of “GATGATTGTTCTCCCAGCTGATGAATTGAGTAGATCGAGTAAACAAATTTTCCTAATCTTTCTGTTCAAGCGCCATCTAC”, the binding signal (RPM ratio (pull-down/input)) is reported as 0.386. With “GATGATTGTTCTCCCAGCTGATGAATTACGGGACTCGAGTAAACAAATTTTCCTAATCTTTCTGTTCAAGCGCCATCTAC” the binding signal (RPM ratio (pull-down/input)) was 0.382. In the case of “GATGATTGTTCTCCCAGCTGATGAATTAAGGGGATCGAGTAAACAAATTTTCCTAATCTTTCTGTTCAAGCGCCATCTAC”, the binding signal (RPM ratio (pull-down/input)) is reported as 0.31. Work on “GATGATTGTTCTCCCAGCTGATGAATTGTAAGGCTCGAGTAAACAAATTTTCCTAATCTTTCTGTTCAAGCGCCATCTAC” yielded a binding signal (RPM ratio (pull-down/input)) of 0.367. For “GATGATTGTTCTCCCAGCTGATGAATTGGTGCCATCGAGTAAACAAATTTTCCTAATCTTTCTGTTCAAGCGCCATCTAC”, the binding signal (RPM ratio (pull-down/input)) was 2.34. For “GATGATTGTTCTCCCAGCTGATGAATTCAAGAAGTCGAGTAAACAAATTTTCCTAATCTTTCTGTTCAAGCGCCATCTAC”, the binding signal (RPM ratio (pull-down/input)) was 0.167. With “GATGATTGTTCTCCCAGCTGATGAATTAGGATCTTCGAGTAAACAAATTTTCCTAATCTTTCTGTTCAAGCGCCATCTAC” the binding signal (RPM ratio (pull-down/input)) was 0.326. Work on “GATGATTGTTCTCCCAGCTGATGAATTCGGCTTCTCGAGTAAACAAATTTTCCTAATCTTTCTGTTCAAGCGCCATCTAC” yielded a binding signal (RPM ratio (pull-down/input)) of 1.85. Work on “GATGATTGTTCTCCCAGCTGATGAATTTGGGAATTCGAGTAAACAAATTTTCCTAATCTTTCTGTTCAAGCGCCATCTAC” yielded a binding signal (RPM ratio (pull-down/input)) of 0.843. “GATGATTGTTCTCCCAGCTGATGAATTCGACTCGTCGAGTAAACAAATTTTCCTAATCTTTCTGTTCAAGCGCCATCTAC” was tested, and the binding signal (RPM ratio (pull-down/input)) was 0.435. “GATGATTGTTCTCCCAGCTGATGAATTTGACCAATCGAGTAAACAAATTTTCCTAATCTTTCTGTTCAAGCGCCATCTAC” was tested, and the binding signal (RPM ratio (pull-down/input)) was 0.253.
